# Data from the supplement of paper PMC8728848.
# The list shows a part of the results.
# Legend:
# Test in all cases: glycan array binding signal (z-score within array); higher = stronger binding
# Conditions in all cases: glycan notation: IUPAC condensed, linker removed
# Gal6S(b1-4)Glc6S = target: Gal6S(b1-4)Glc6S
# Outline: (§1)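 Glycan array data came from 3228 arrays in the Consortium for Functional Glycomics database, and only arrays with an available protein sequence were kept. Glycan names were put into IUPAC-condensed notation, and columns mapping to the same glycan were averaged. The binding signal is a within-array Z-score, averaged across arrays of one protein sequence run at different concentrations or buffers and across linkers. A negative Z-score can be read as non-binding.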
# Gal6S(b1-4)GlcNAc = target: Gal6S(b1-4)GlcNAc
# Outline: as §1
# Gal6S(b1-4)GlcNAc6S = target: Gal6S(b1-4)GlcNAc6S
# Outline: as §1
# GalNAc(a1-3)Gal = target: GalNAc(a1-3)Gal
# Outline: as §1
# GalNAc(a1-3)GalNAc = target: GalNAc(a1-3)GalNAc
# Outline: as §1
# [1] = target: GalNAc(a1-3)GalNAc(a1-3)Gal(a1-4)Gal(b1-4)GlcNAc
# Outline: as §1
# [2] = target: GalNAc(a1-3)GalNAc(b1-3)Gal(a1-4)Gal(b1-4)Glc
# Outline: as §1
# [3] = target: GalNAc(a1-3)GalNAc(b1-3)Gal(a1-4)Gal(b1-4)GlcNAc
# Outline: as §1
# GalNAc(b1-3)Gal = target: GalNAc(b1-3)Gal
# Outline: as §1
# [4] = target: GalNAc(b1-3)Gal(a1-4)Gal(b1-4)GlcNAc
# Outline: as §1
# [5] = target: GalNAc(b1-3)Gal(a1-4)Gal(b1-4)GlcNAc(b1-3)Gal(b1-4)Glc
# Outline: as §1
# [6] = target: GalNAc(b1-3)Gal(a1-6)Gal(b1-4)Glc
# Outline: as §1
# GalNAc(b1-3)GalNAc = target: GalNAc(b1-3)GalNAc
# Outline: as §1
# GalNAc(b1-3)GlcNAc = target: GalNAc(b1-3)GlcNAc
# Outline: as §1
# GalNAc(b1-4)Gal(b1-4)Glc = target: GalNAc(b1-4)Gal(b1-4)Glc
# Outline: as §1
# GalNAc(b1-4)GlcNAc = target: GalNAc(b1-4)GlcNAc
# Outline: as §1
# [7] = target: GalNAc(b1-4)GlcNAc(b1-2)Man
# Outline: as §1
# [8] = target: GalNAc(b1-4)GlcNAc(b1-2)Man(a1-3)[GalNAc(b1-4)GlcNAc(b1-2)Man(a1-6)]Man(b1-4)GlcNAc(b1-4)GlcNAc
# Outline: as §1
# [9] = target: GalNAc(b1-4)GlcNAc(b1-3)GalNAc(b1-4)GlcNAc
# Outline: as §1
# GalNAc(b1-4)GlcNAc6S = target: GalNAc(b1-4)GlcNAc6S
# Outline: as §1
# GalNAc(b1-6)GalNAc = target: GalNAc(b1-6)GalNAc
# Outline: as §1
# GalNAc3S(b1-4)GlcNAc = target: GalNAc3S(b1-4)GlcNAc
# Outline: as §1
# GalNAc3S(b1-4)GlcNAc3S = target: GalNAc3S(b1-4)GlcNAc3S
# Outline: as §1
# [10] = target: GalNAc3S(b1-4)[Fuc(a1-3)]GlcNAc
# Outline: as §1
# GalNAc4S6S(b1-4)GlcNAc = target: GalNAc4S6S(b1-4)GlcNAc
# Outline: as §1
# GalNAc6S(b1-4)GlcNAc = target: GalNAc6S(b1-4)GlcNAc
# Outline: as §1
# Glc(a1-4)Glc = target: Glc(a1-4)Glc
# Outline: as §1
# [11] = target: Glc(a1-4)Glc(a1-4)Glc(a1-4)Glc
# Outline: as §1
# Glc(a1-6)Glc(a1-6)Glc = target: Glc(a1-6)Glc(a1-6)Glc
# Outline: as §1
# [12] = target: Glc(a1-6)Glc(a1-6)Glc(a1-6)Glc
# Outline: as §1
# Glc(b1-4)Glc = target: Glc(b1-4)Glc
# Outline: as §1
# Glc(b1-6)Glc = target: Glc(b1-6)Glc
# Outline: as §1
# GlcA(b1-3)Gal = target: GlcA(b1-3)Gal
# Outline: as §1
# GlcA(b1-3)GlcNAc = target: GlcA(b1-3)GlcNAc
# Outline: as §1
# GlcA(b1-6)Gal = target: GlcA(b1-6)Gal
# Outline: as §1
# [13] = target: GlcA3S(b1-3)Gal(b1-4)GlcNAc(b1-2)Man
# Outline: as §1
# [14] = target: GlcA3S(b1-3)Gal(b1-4)GlcNAc(b1-3)Gal(b1-4)Glc
# Outline: as §1
# [15] = target: GlcNAc(a1-3)Gal(b1-4)GlcNAc
# Outline: as §1
# [16] = target: GlcNAc(a1-4)Gal(b1-3)GlcNAc
# Outline: as §1
# [17] = target: GlcNAc(a1-4)Gal(b1-4)GalNAc
# Outline: as §1
# [18] = target: GlcNAc(a1-4)Gal(b1-4)GlcNAc
# Outline: as §1
# [19] = target: GlcNAc(a1-4)Gal(b1-4)GlcNAc(b1-3)Gal(b1-4)Glc
# Outline: as §1
# [20] = target: GlcNAc(a1-4)Gal(b1-4)GlcNAc(b1-3)Gal(b1-4)GlcNAc
# Outline: as §1
# [21] = target: GlcNAc(a1-4)Gal(b1-4)GlcNAc(b1-3)Gal(b1-4)GlcNAc(b1-3)Gal(b1-4)GlcNAc
# Outline: as §1
# [22] = target: GlcNAc(a1-4)Gal(b1-4)GlcNAc(b1-3)Gal(b1-4)[Fuc(a1-3)]GlcNAc(b1-3)Gal(b1-4)[Fuc(a1-3)]GlcNAc
# Outline: as §1
binder,measurement,setting,value
NKR-PIC (Mus musculus) (protein) GTGQKPSREKCCVFIQENLNKTTDCSVNLECPQDWLLHRDKCFHVSQVSNTWEEGQADCGRKGATLLLIQDQEELRFLLDSIKEKYNSFWIGLRFTLPDMNWKWINGTTFNSDVLKITGVTENGSCASILGDKVTPESCASDNRWICQKELNHETPSNDSGT,glycan array binding signal (z-score),Gal6S(b1-4)Glc6S,-0.29
same,glycan array binding signal (z-score),Gal6S(b1-4)GlcNAc,-0.271
same,glycan array binding signal (z-score),Gal6S(b1-4)GlcNAc6S,-0.239
same,glycan array binding signal (z-score),GalNAc(a1-3)Gal,0.263
same,glycan array binding signal (z-score),GalNAc(a1-3)GalNAc,-0.315
same,glycan array binding signal (z-score),[1],-0.341
same,glycan array binding signal (z-score),[2],-0.327
same,glycan array binding signal (z-score),[3],-0.343
same,glycan array binding signal (z-score),GalNAc(b1-3)Gal,-0.37
same,glycan array binding signal (z-score),[4],-0.121
same,glycan array binding signal (z-score),[5],-0.385
same,glycan array binding signal (z-score),[6],-0.333
same,glycan array binding signal (z-score),GalNAc(b1-3)GalNAc,-0.344
same,glycan array binding signal (z-score),GalNAc(b1-3)GlcNAc,-0.346
same,glycan array binding signal (z-score),GalNAc(b1-4)Gal(b1-4)Glc,-0.328
same,glycan array binding signal (z-score),GalNAc(b1-4)GlcNAc,3.37
same,glycan array binding signal (z-score),[7],5.67
same,glycan array binding signal (z-score),[8],2.63
same,glycan array binding signal (z-score),[9],2.89
same,glycan array binding signal (z-score),GalNAc(b1-4)GlcNAc6S,2.51
same,glycan array binding signal (z-score),GalNAc(b1-6)GalNAc,0.458
same,glycan array binding signal (z-score),GalNAc3S(b1-4)GlcNAc,0.586
same,glycan array binding signal (z-score),GalNAc3S(b1-4)GlcNAc3S,-0.377
same,glycan array binding signal (z-score),[10],-0.38
same,glycan array binding signal (z-score),GalNAc4S6S(b1-4)GlcNAc,-0.357
same,glycan array binding signal (z-score),GalNAc6S(b1-4)GlcNAc,4.94
same,glycan array binding signal (z-score),Glc(a1-4)Glc,-0.326
same,glycan array binding signal (z-score),[11],-0.34
same,glycan array binding signal (z-score),Glc(a1-6)Glc(a1-6)Glc,-0.31
same,glycan array binding signal (z-score),[12],-0.305
same,glycan array binding signal (z-score),Glc(b1-4)Glc,-0.281
same,glycan array binding signal (z-score),Glc(b1-6)Glc,-0.369
same,glycan array binding signal (z-score),GlcA(b1-3)Gal,-0.283
same,glycan array binding signal (z-score),GlcA(b1-3)GlcNAc,-0.374
same,glycan array binding signal (z-score),GlcA(b1-6)Gal,-0.335
same,glycan array binding signal (z-score),[13],-0.356
same,glycan array binding signal (z-score),[14],-0.224
same,glycan array binding signal (z-score),[15],3.83
same,glycan array binding signal (z-score),[16],1.3
same,glycan array binding signal (z-score),[17],1.02
same,glycan array binding signal (z-score),[18],2.75
same,glycan array binding signal (z-score),[19],2.08
same,glycan array binding signal (z-score),[20],2.07
same,glycan array binding signal (z-score),[21],4.1
same,glycan array binding signal (z-score),[22],1.22
